Assay results: PubChem BioAssay AID1346428 (National Center for Advancing Translational Sciences (NCATS), 2018)
In all, about 48,000 compounds went through this assay and about 1,200 (2.5%) were called active. About 2% were inconclusive and are not listed.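 The calls were made as follows: active = activation of at least 60% and not above a set upper limit (about 1 call in 100 departs from these limits); inconclusive = activation of 40% to 60%, or above that upper limit; inactive = activation under 40%.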 The list shows a part of the results.

target: Probable G-protein coupled receptor 32 (Homo sapiens) (UniProt O75388); assay: qHTS for Agonists of Human Resolvin D1 Receptor DRV1; conditions: CHO-K1 GPR32 beta-arrestin PathHunter luminescence, 90 min; at 76.9 µM; active compounds read high; zero percent set by DMSO-only wells; also: 0% is about no effect
How it was run: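 Readings come from a cell-based beta-arrestin complementation format: CHO-K1 GPR32 stable cells (2,500/well) treated 90 min with compounds, then beta-Gal substrate added for 1 h before chemiluminescence imaging.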

Chain of UniProt O75388 (O75388 whole entry, looked up): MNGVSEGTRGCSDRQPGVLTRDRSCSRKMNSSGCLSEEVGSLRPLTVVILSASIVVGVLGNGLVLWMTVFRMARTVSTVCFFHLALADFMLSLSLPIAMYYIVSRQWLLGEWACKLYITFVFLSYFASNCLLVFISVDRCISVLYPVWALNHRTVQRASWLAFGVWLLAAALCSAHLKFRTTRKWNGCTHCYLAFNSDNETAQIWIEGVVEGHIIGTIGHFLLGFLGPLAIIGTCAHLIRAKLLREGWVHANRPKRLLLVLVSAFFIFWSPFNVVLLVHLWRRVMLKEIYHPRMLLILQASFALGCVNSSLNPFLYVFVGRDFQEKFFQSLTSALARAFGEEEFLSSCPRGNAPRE

Question: COc1ccc(-c2[nH]ncc2C(=O)NCc2cccc(OC)c2)cc1 was tested. Which activation did it give?
Answer: inactive: -2.02%

Question: Which activation does the source give for CCOC(=O)[C@H](CCc1ccccc1)N[C@@H](C)C(=O)N1CCC[C@H]1C(=O)O here?
Answer: inactive: 17.4%

Question: CCn1c(=O)cc(SCC(=O)NCc2ccc(Cl)cc2)c2ccccc21 was tested. Which activation did it give?
Answer: inactive: -7.07%

Question: Which activation does the source give for Cc1ccc(CNC(=O)CSc2nnc(C)c3c(C)n(-c4ccccc4)nc23)cc1 here?
Answer: inactive: 0.539%

Question: For CC1CCN(S(=O)(=O)c2ccc3c(ccc(=O)n3CC(=O)NCc3ccccc3Cl)c2)CC1, which activation is on record?
Answer: inactive: -7.22%

Question: With Cc1ccc(/C=C(\C#N)C(=O)Nc2cccc(Cl)c2)o1 as the molecule, how does the activation read?
Answer: inactive: -8.67%

Question: With COc1ccc(CCNC(=O)C2CCN(Cc3nc(-c4ccc(OC)c(OC)c4)oc3C)CC2)cc1OC as the molecule, how does the activation read?
Answer: inactive: -3.09%

Question: With O=C(NCCn1cc(SCc2ccc(Br)cc2)c2ccccc21)c1cccs1 as the molecule, how does the activation read?
Answer: inactive: -18.4%

Question: With CCCC(=O)N1CCc2cc(OC)c(OC)cc2C1COc1ccc(C(=O)OC)cc1 (centres undefined) as the molecule, how does the activation read?
Answer: inactive: 40.7%

Question: With CCC1Oc2ccccc2N(CC(=O)NCc2cc(OC)ccc2OC)C1=O (centres undefined) as the molecule, how does the activation read?
Answer: inactive: -1.05%

Question: Which activation does the source give for CCN(CC)C(=O)Cn1c(=O)n(CC2CCC(C(=O)NC)CC2)c(=O)c2sccc21 (centres undefined) here?
Answer: inactive: 1.59%

Question: How did the activation turn out when CCOc1ccccc1-c1nc(Cn2c(=O)cc(C)c3c(C)nn(-c4ccccc4)c32)c(C)o1 was run?
Answer: inactive: -7.43%

Question: With Cc1cc(C)cc(OCCCn2c(-c3ccc(Cl)cc3)nc3ccccc3c2=O)c1 as the molecule, how does the activation read?
Answer: inactive: -0.704%

Question: COc1ccc(C(CC(=O)NCc2ccc(Cl)cc2)N2Cc3ccccc3C2=O)cc1OC (centres undefined) was tested. Which activation did it give?
Answer: inactive: -20.4%

Question: How did the activation turn out when COC(=O)c1sc(-c2ccccc2)cc1NC(=O)Nc1ccc(F)cc1 was run?
Answer: inactive: -19.4%

Question: With Cc1cc(C)cc(NC(=O)C2CCCN2S(=O)(=O)c2ccc3nc(-c4ccccc4)[nH]c3c2)c1 (centres undefined) as the molecule, how does the activation read?
Answer: inactive: -15.6%

Question: Which activation does the source give for COCCNC(=O)CCCn1c(SCC(=O)c2ccc(Br)cc2)nc2c(sc3ccccc32)c1=O here?
Answer: inactive: -21.6%

Question: How did the activation turn out when O=c1c2ccccc2n(Cc2c(F)cccc2Cl)c(=O)n1CCc1ccccc1 was run?
Answer: inactive: -21.9%

Question: Which activation does the source give for Cc1cc2c(cc3c(SCc4ccc(Cl)cc4)nncn32)o1 here?
Answer: inactive: 40%

Question: How did the activation turn out when COc1ccc(C)cc1NC(=O)c1cnc2ccc(C)cn2c1=O was run?
Answer: inactive: 0.61%

Question: Which activation does the source give for CCOc1cc(C2c3c(oc4ccccc4c3=O)C(=O)N2Cc2ccc(OC)cc2)ccc1O (centres undefined) here?
Answer: inactive: -6.81%

Question: Cc1ccn2c(=O)cc(COc3ccc(NC(=O)COc4ccc(C)c(C)c4)cc3)nc2c1 was tested. Which activation did it give?
Answer: inactive: 3.16%

Question: For Cc1ccc(OCC(=O)NCC(c2ccc(Cl)cc2)N2CCOCC2)cc1C (centres undefined), which activation is on record?
Answer: inactive: -22.5%

Question: Which activation does the source give for Cc1cccc(Nc2c(-c3ccsc3)nc3nc(C)cc(C)n23)c1 here?
Answer: inactive: -29.7%

Question: Which activation does the source give for O=C(CCCCn1c(=O)c2ccccc2n(Cc2cccc(F)c2)c1=O)NCc1ccc2c(c1)OCO2 here?
Answer: inactive: -2.31%

Question: Cc1ccc(-c2nc3c4ccccc4n(CC(=O)NCc4ccc(F)cc4)c(=O)n3n2)cc1 was tested. Which activation did it give?
Answer: inactive: -4.1%

Question: O=C(O)c1ccc2nc(-c3cc4cc(Cl)ccc4oc3=O)[nH]c2c1 was tested. Which activation did it give?
Answer: inactive: -2.99%

Question: Which activation does the source give for Cc1ccc(C(=O)c2oc3ccccc3c2NC(=O)Cc2coc3ccc(C)cc23)cc1 here?
Answer: inactive: -2.85%

Question: COc1ccc(-n2cnc3cc(C(=O)NC4CCCCCC4)ccc32)cc1 was tested. Which activation did it give?
Answer: inactive: -3.5%

Question: Which activation does the source give for CCOC(=O)c1c(C)[nH]c(C)c1S(=O)(=O)N(C)CC(=O)NCc1ccc(Cl)cc1 here?
Answer: inactive: 9.19%

Question: Which activation does the source give for O=C1COc2cc(S(=O)(=O)CCC(=O)NC3CCCCC3)c(Cl)cc2N1 here?
Answer: inactive: 9.78%

Question: Which activation does the source give for COc1ccc(C)cc1-n1cnc2cc(C(=O)NC3CCCCCC3)ccc21 here?
Answer: inactive: -14.8%

Question: Which activation does the source give for Cc1ccc2onc(CNC(=O)NCc3ccc(Cl)cc3)c2c1 here?
Answer: inactive: 12.5%

Question: How did the activation turn out when CCc1nc(-c2cc(S(=O)(=O)N3CCN(c4ccccc4)CC3)ccc2OC)no1 was run?
Answer: inactive: -1.44%

Question: CCc1nn(CC(=O)NCCCN(CC)CC)c(=O)c2cc3occc3n12 was tested. Which activation did it give?
Answer: inactive: -6.47%

Question: How did the activation turn out when COc1cccc(CNC(=O)CN2C(=O)N(c3ccc(C)cc3C)S(=O)(=O)c3ccccc32)c1OC was run?
Answer: inactive: -4.96%

Question: With Cn1c(SCC(=O)Nc2nc3ccccc3s2)ncc(C(=O)Nc2ccccc2)c1=O as the molecule, how does the activation read?
Answer: inactive: -6.09%

Question: For CCSc1ncc(Cl)c(C(=O)Nc2c(C(=O)Nc3ccccc3)oc3ccccc23)n1, which activation is on record?
Answer: inactive: -6.66%

Question: Which activation does the source give for CCOc1ccc(CCNC(=O)CCCc2nnc3n(CC)c(=O)c4sccc4n23)cc1 here?
Answer: inactive: -0.849%

Question: O=C(CSc1nccn1-c1cccc(Cl)c1)Nc1cccc2ccccc12 was tested. Which activation did it give?
Answer: inactive: -13.3%

Question: COc1cccc(C(=O)Nc2cccc(-c3nc4ncccn4c3C)c2)c1 was tested. Which activation did it give?
Answer: active: 61.5%

Question: With Cn1c(=O)c2c(-c3ccc(Br)cc3)n(Cc3ccc(F)cc3)cc2n(C)c1=O as the molecule, how does the activation read?
Answer: inactive: 0.997%

Question: Which activation does the source give for COc1ccc(-c2nc3cc(C)ccn3c2NC(=O)c2cccc(F)c2)cc1 here?
Answer: inactive: -37%

Question: Which activation does the source give for COc1ccc(C(=O)N2CCc3cc(OC)c(OC)cc3C2COc2ccccc2OC)cc1 (centres undefined) here?
Answer: inactive: -9.59%

Question: For COC(=O)c1c(C)sc(-c2c(-c3cccc(OC)c3)[nH]c3c2c(=O)[nH]c(=O)n3C)c1O, which activation is on record?
Answer: inactive: -13.9%

Question: For CC(=O)Nc1ccc(S(=O)(=O)NC2(C(F)(F)F)NC(=O)N(c3ccc(Cl)cc3)C2=O)cc1 (centres undefined), which activation is on record?
Answer: inactive: 1.24%

Question: For CCCCN(CC)C(=O)Nc1ccc2c(c1)N(C)C(=O)c1ccccc1S2, which activation is on record?
Answer: inactive: -23.8%

Question: Which activation does the source give for O=C(Nc1ccc(Cl)c(Cl)c1)C1CC1 here?
Answer: active: 82.6%

Question: For CCCn1c(=O)c2sccc2n2c(CCCC(=O)Nc3ccc(C)c(F)c3)nnc12, which activation is on record?
Answer: inactive: -11.8%

Question: For COc1ccc(C)c2sc(N(Cc3cccnc3)C(=O)CCc3ccccc3)nc12, which activation is on record?
Answer: inactive: -10.4%

Question: Which activation does the source give for COc1ccc(-c2noc(CN3CCN(c4ccccc4OC)CC3)n2)cc1OC here?
Answer: inactive: 17.9%

Question: Which activation does the source give for Cc1ccc(C(=O)COC(=O)c2cc(-c3ccc(Cl)cc3)nc3ccccc23)cc1 here?
Answer: inactive: 24.5%

Question: CCc1nnc(SCC(=O)Nc2cc(Cl)c(OC)cc2OC)c2cc3oc(C)cc3n12 was tested. Which activation did it give?
Answer: inactive: -0.0402%

Question: For COc1cccc(N2CC(NC(=O)COc3ccc4ccccc4c3)CC2=O)c1 (centres undefined), which activation is on record?
Answer: inactive: -11.2%
